# ± gives the standard error. This sample is rich in variants without activity.
# B1: glmS ribozyme (parent)
# chain: AUAAAAGCGCCAGAACUACAGAAAUGUAGUUGACGAGGAGGAGGUUUAUCGAAUUUUCGGCGGAUGCCUCCAAA
# Variants of: B1
# Experiment: self-cleavage kobs at 2500 uM GlcN6P; higher = faster cleavage; RNA array
# Settings: with glucosamine-6-phosphate
# Outline: (§1)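 In situ transcription by E. coli RNA polymerase produced barcoded ribozyme variants on sequenced MiSeq chips, and a hybridised Cy3 probe tracked them at 37 °C. Glucosamine-6-phosphate was flowed in at 40 μM to 10 mM in HEPES/KCl/Mg(OAc)2 buffer. kcat and KM were taken from weighted Michaelis–Menten fits of kobs values from exponential decay fits.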
row,Variant,self-cleavage kobs at 2500 uM GlcN6P [s⁻¹]
1,AUAAAAGCGCCAGAACUACAGAAAUGUAGUUGACGAGGCGGAGGUUUAGCGAAUUUUCGGCGGAUGCGUCCAAA [A39C U49G C68G],< 1e-05
2,AUAAAAGCGCCAGAACUACAGAAAUGUAGUUGACGAGGACAACGUUUAUCGAAUUUUCGGCGGAUGCCUCCAAA [G40C G41A G43C],< 1e-05
3,AUAAAAGCGCCAGAACUACAGAAAUGUAGUUGACGAUGAGGGGGUUUAUCGUAUUUUCCGCGGAUGCCUCCAAA [G37U A42G A52U G59C],< 1e-05
4,AUAAAAGCGCCAGAACUACAGAAAUGUAGUUGACGAGUAGGAGGUUUAUCUAAUGUUCGGCGGAGGCCUCCAAA [G38U G51U U55G U65G],< 1e-05
5,AUAAAAGCGCCAGAACUACAGAAAUGUAGUUGACGACGAGGAUGUUUAACGUAUUUUCGGCGGAUGCCUUCAAA [G37C G43U U49A A52U C70U],< 1e-05
6,AUAAAAGCGCCAGAACUACAGAAAUGUAGUUGACGAGGUCGAGGUUUAUCGAAUUUUCGGCGGAUGCGUCCAAA [A39U G40C C68G],< 1e-05
7,AUAAAAGCGCCAGAACUACAGAAAUGUAGUUGACGAGGAAGAGGUUUAUCCAAUGUUCGGCUGAUGCCUCCAAA [G40A G51C U55G G62U],< 1e-05
8,AUAAAAGCGCCAGAACUACAGAAAUGUAGUUGACGAGGGAGAGGUUUAUCGAAUUUUCGGCGCAUGCCUCCAAA [A39G G40A G63C],< 1e-05
9,AUAAAAGCGCCAGAACUACAGAAAUGUAGUUGACGAGCAGGACGUUUAUCGAAUUGUCGGCGGAUGACACCAAA [G38C G43C U56G C67A U69A],< 1e-05
10,AUAAAAGCGCCAGAACUACAGAAAUGUAGUUGACGAUGAGGAGGUGUAUCGUAUUUACGGCGGAUGCCUCCAAA [G37U U46G A52U U57A],< 1e-05
11,AUAAAAGCGCCAGAACUACAGAAAUGUAGUUGACGAUGAGGAGGUUUAUCGAAUCUUCAGCGGAUGCCUCCAAA [G37U U55C G59A],< 1e-05
12,AUAAAAGCGCCAGAACUACAGAAAUGUAGUUGACGAGGGGUGGGUUUAUCGAAUUUUCGGCGGAUGCCUCCAAA [A39G G41U A42G],0.000339 ± 9.9e-05
13,AUAAAAGCGCCAGAACUACAGAAAUGUAGUUGACGAUGAGGAGGUUUAUCGAAUUUUCGGCGGAUUCGUCGAAA [G37U G66U C68G C71G],4.28e-05 ± 2e-05
14,AUAAAAGCGCCAGAACUACAGAAAUGUAGUUGACGACGAGGAGAUUUAUCGAAUUUUUGGCGGAUGCCUGCAAA [G37C G44A C58U C70G],< 1e-05
15,AUAAAAGCGCCAGAACUACAGAAAUGUAGUUGACGAGGUGGAGGUUUAUCGAAUUUUAGGCGGAUGCCUCCAAA [A39U C58A],8.13e-05 ± 1.4e-05
16,AUAAAAGCGCCAGAACUACAGAAAUGUAGUUGACGAGGAUGAGGUUUAACGAAUUUUCGGCCGAUGCUUCCAAA [G40U U49A G62C C68U],< 1e-05
17,AUAAAAGCGCCAGAACUACAGAAAUGUAGUUGACGAAGAGGAGCUUUAUCGAAUUUUCGGCGCAUGCCUCCAAA [G37A G44C G63C],< 1e-05
18,AUAAAAGCGCCAGAACUACAGAAAUGUAGUUGACGAGGGUGAGGUUUAUCGAAAUUUCGGCGGAUGCCUCCAAA [A39G G40U U54A],0.000126 ± 6.2e-05
19,AUAAAAGCGCCAGAACUACAGAAAUGUAGUUGACGAGGAUGAGGUUUAUCGAAUUUUCGGGGGAUGACUCCAAA [G40U C61G C67A],< 1e-05
20,AUAAAAGCGCCAGAACUACAGAAAUGUAGUUGACGAGUAGGAAAUUUAUCGAAUUUUCGGCGGAUGCCUCCAAA [G38U G43A G44A],< 1e-05
21,AUAAAAGCGCCAGAACUACAGAAAUGUAGUUGACGACCAGGUGGUUUAUCGAAUUUUCGGCGGAUGCCUCCAAA [G37C G38C A42U],< 1e-05
22,AUAAAAGCGCCAGAACUACAGAAAUGUAGUUGACGAGGAUGAGAUUUAUCGAAUCUUCGGCGGAUGUCUCCAAA [G40U G44A U55C C67U],< 1e-05
23,AUAAAAGCGCCAGAACUACAGAAAUGUAGUUGACGAUGAGGAGCUUUAUCGAAUUUUCGGCGGAUGCGUCCAAA [G37U G44C C68G],< 1e-05
24,AUAAAAGCGCCAGAACUACAGAAAUGUAGUUGACGAGGAUUAGGUUUAUCGAAUUUUCGACGGAUGCCUCCAAA [G40U G41U G60A],< 1e-05
25,AUAAAAGCGCCAGAACUACAGAAAUGUAGUUGACGAGCAGGAGCUUUAUCGAAUUUUCGGCGGAUGCCUCCAAA [G38C G44C],< 1e-05
26,AUAAAAGCGCCAGAACUACAGAAAUGUAGUUGACGAAGAGGAGGUUUAACGGAUUUUCGGCGGAUGCCUCCAAA [G37A U49A A52G],< 1e-05
27,AUAAAAGCGCCAGAACUACAGAAAUGUAGUUGACGAGGGGCAGGUUUAUCUAAUUUUCGGUGGAUGCCUCCAAA [A39G G41C G51U C61U],< 1e-05
28,AUAAAAGCGCCAGAACUACAGAAAUGUAGUUGACGAUGAGGAGGUUUAUCGUACUUUCGGCGGAUGCCUCCAAA [G37U A52U U54C],< 1e-05
29,AUAAAAGCGCCAGAACUACAGAAAUGUAGUUGACGAGGGGGAGGUUGAUCGAAUUUUCGGCGGAUGCGUCCAAA [A39G U47G C68G],5.94e-05 ± 2.4e-05
30,AUAAAAGCGCCAGAACUACAGAAAUGUAGUUGACGAGGGGUAGGUUUAUCGAAUUUUCGGCGGAUGCAUCCAAA [A39G G41U C68A],< 1e-05

# Variants of: B1
# Experiment: self-cleavage kobs at 10000 uM GlcN6P; higher = faster cleavage; RNA array
# Settings: with glucosamine-6-phosphate
# Outline: as §1
row,Variant,self-cleavage kobs at 10000 uM GlcN6P [s⁻¹]
1,AUAAAAGCGCCAGAACUACAGAAAUGUAGUUGACGAUGAGGGGGUUUAUCGUAUUUUCCGCGGAUGCCUCCAAA [G37U A42G A52U G59C],< 1e-05
2,AUAAAAGCGCCAGAACUACAGAAAUGUAGUUGACGACGAGGAUGUUUAACGUAUUUUCGGCGGAUGCCUUCAAA [G37C G43U U49A A52U C70U],< 1e-05
3,AUAAAAGCGCCAGAACUACAGAAAUGUAGUUGACGAGGAAGAGGUUUAUCCAAUGUUCGGCUGAUGCCUCCAAA [G40A G51C U55G G62U],< 1e-05
4,AUAAAAGCGCCAGAACUACAGAAAUGUAGUUGACGAGGUGGAGGUUUAUCGAAUUUUAGGCGGAUGCCUCCAAA [A39U C58A],0.000214 ± 2.7e-05
5,AUAAAAGCGCCAGAACUACAGAAAUGUAGUUGACGAGCAGGAGCUUUAUCGAAUUUUCGGCGGAUGCCUCCAAA [G38C G44C],< 1e-05
6,AUAAAAGCGCCAGAACUACAGAAAUGUAGUUGACGAAGAGGAGGUUUAACGGAUUUUCGGCGGAUGCCUCCAAA [G37A U49A A52G],< 1e-05
7,AUAAAAGCGCCAGAACUACAGAAAUGUAGUUGACGAGGGGUAGGUUUAUCGAAUUUUCGGCGGAUGCAUCCAAA [A39G G41U C68A],< 1e-05
